Read counts are not given, so values of variants with three or more changes are uncertain.
B1: CPEB3 Ribozyme (parent)
chain: UAACAGGGGGCCACAGCAGAAGCGUUCACGUCGCAGCCCCUGUCAGAUUCUGGUGAAUCUGCGAAUUCUGCUGUAUAUCUC

Variants of: B1
Assay: self-cleavage, relative activity (ratio to wild type); higher = more cleavage; in vitro, sequencing
Method in brief: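 Barcoded CPEB3 ribozyme mutants, produced by rounds of error-prone PCR, self-cleaved while being transcribed with T7 RNA polymerase for 5 hours at 37°C and during a subsequent 15 min DNase I step before EDTA was added. Sequencing of template-switched cDNA on Illumina gave cleaved and total reads, and DNA sequencing assigned barcodes to variants. Each variant's relative activity is its cleaved/total read fraction divided by the unmutated ribozyme's fraction, averaged across three batches. A variant needed a minimum of 5 reads.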
UAACAGGGGGCCACAGCUGAAGUGUUCUCGUCGCAGCCCCUGCCAGAUUCUGGUGAAUCUGCGAAUUCUGCUGUACACCUC [A18U C23U A28U U43C U76C U78C] gave a self-cleavage of 0.06. Work on UAACAGGGGGCCACAGCUGAAGUGUUCACGCCGCAGCCCCUGUCAGAUUCUGGGGAAUCUGUGAAUUCCGCUGUAUAUCUC [A18U C23U U31C U54G C62U U69C] yielded a self-cleavage of 0.15. With UAACAGGGGGCCACAGCUGAAGCGUUAACGUCGCAGCCCCUGUCAGAUUCUGGAGAACCUGCGAGUUCAGCUGUAUAUCUC [A18U C27A U54A U58C A65G U69A] the self-cleavage was 0.09. UAACAGGGGGCCACAGCUGAAGCGUUUACGUCGCGGCCCCAGUCAGAUUCUGGUGAAUCUGCGAAUUCUGCCGUAUAUCUC [A18U C27U A35G U41A U72C] gave a self-cleavage of 0.05. In the case of UAACAGGGGGCCACAGCUGAAGCGUUUACGUCGCAGCCCCUGUCAGAUUCUGGUGAAUCUGCGAAUUCUGCUGUAUGCCUC [A18U C27U A77G U78C], the self-cleavage is reported as 0.09. For UAACAGGGGGCCACAGCUGAAGCGUUUACGUCGCAGCCCCUGUCAGAUUCUGGUGAAUCUGCGAAUCCUGCUGUAUAUCUC [A18U C27U U67C], the self-cleavage was 0.11. Variant UAACAGGGGGCCACAGCUGAAGCGUUCAAGUCGCAGCCCCUGUCAGAUUCUGGUGCCUCUGCGAAUUCUGCCGUAUAUCUC [A18U C29A A56C A57C U72C] has a self-cleavage of 0.08. Variant UAACAGGGGGCCACAGCUGAAGCGUUCAAGUCGCAGCCCCAGUCAGGUACUGGUGAAUCUGCGAUUCCUGCUGUAUAUCUC [A18U C29A U41A A47G U49A A65U U67C] has a self-cleavage of 0.06. Variant UAACAGGGGGCCACAGCUGAAGCGUUCAGGUCGCAGUCCCUGUCAGAUUCUGGUGAAUCUGCGAAUUCUGCUGUAUAUCUC [A18U C29G C37U] has a self-cleavage of 0.12. For UAACAGGGGGCCACAGCUGAAGCGUUCAUGUCGCAGCCCCUGUCGGAUUCUGGUGAAUCUGCGAAUUCUGCUGUAUAUCUC [A18U C29U A45G], the self-cleavage was 0.16. For UAACAGGGGGCCACAGCUGAAGCGUUCAUGUCGCAGCCCCUGUCAGAUUCUGGUGAAUCUGCGGUUCCUGCUGUAUACCUC [A18U C29U A64G A65U U67C U78C], the self-cleavage was 0.12. Work on UAACAGGGGGCCACAGCUGAAGCGUUCAUGUCACAGCCCCUGUCAGAUUCUGGUGAAUCUGCGAAUUCUGCUGUAUAUCUC [A18U C29U G33A] yielded a self-cleavage of 0.15. In the case of UAACAGGGGGCCACAGCUGAAGCGUUCAUGUCGCAGCCCCUGUCAGACUCUGGUGAAUCUGCGAAUUCUGCUGUAUAUCUC [A18U C29U U48C], the self-cleavage is reported as 0.13. Work on UAACAGGGGGCCACAGCUGAAGCGUUCACGUAGCGGACCCUGUCAGAUUCUGGUGGAUCUACGAAUUCUGCUGUAUAUCUC [A18U C32A A35G C37A A56G G61A] yielded a self-cleavage of 0.14. In the case of UAACAGGGGGCCACAGCUGAAGCGUUCACGUAGCAGCCCCCGUCAGAUUCCGGUGGAUCUGCGAAUUCUGCUGCAUAUCUC [A18U C32A U41C U51C A56G U74C], the self-cleavage is reported as 0.08. With UAACAGGGGGCCACAGCUGAAGCGUUCACGUAGCAGCCCCUGUCAGAUCCUGGUGAAUCUGCGAAUUCUGCCGUAUAUCUC [A18U C32A U49C U72C] the self-cleavage was 0.18. Variant UAACAGGGGGCCACAGCUGAAGCGUUCACGUAGCAGCCCCUGUCAGAUUCUGGAGAAUCUGCGAAUUCCGCUGUAUAUCUC [A18U C32A U54A U69C] has a self-cleavage of 0.06. UAACAGGGGGCCACAGCUGAAGCGUUCACGUUGCAGCCCCUGCCAGAUUCUGGUGAGUCUGCGAAUACUGCCGUAUAUCUC [A18U C32U U43C A57G U67A U72C] showed a self-cleavage of 0.08. For UAACAGGGGGCCACAGCUGAAGCGUUCACGUUGCAGCCCCUGUCAGAUUCUGGUGAAUCUGCGAAUUCUGCUGUAUACCUC [A18U C32U U78C], the self-cleavage was 0.17. Work on UAACAGGGGGCCACAGCUGAAGCGUUCACGUCGAAGCCCCUGUCAGAUUCUGGUGUAUCUGCGAAUUCUGCUGAAUAUCUC [A18U C34A A56U U74A] yielded a self-cleavage of 0.23. In the case of UAACAGGGGGCCACAGCUGAAGCGUUCACGUCGAAGCCCCAGUCAGAUCCUGGUGAAUCUGCGAAUCCUGCUGUAUAUCAC [A18U C34A U41A U49C U67C U80A], the self-cleavage is reported as 0.09. Work on UAACAGGGGGCCACAGCUGAAGCGUUCACGUCGAAGCCCCUGUCAGAUUCUGGUGAAUCCGCGGAUUCUGCUGUAUAACUC [A18U C34A U60C A64G U78A] yielded a self-cleavage of 0.05. For UAACAGGGGGCCACAGCUGAAGCGUUCACGUCGGAGCCCCUGUCAGAUUCAGGUGAAUCUGCGAAUUCGGCUGUAUAUCUC [A18U C34G U51A U69G], the self-cleavage was 0.07. UAACAGGGGGCCACAGCUGAAGCGUUCACGUCGCAGGCCCUGUCAGGAUCUGGUGAAUCUGCGAAUUCCGCUGUGUAUCUC [A18U C37G A47G U48A U69C A75G] gave a self-cleavage of 0.06. In the case of UAACAGGGGGCCACAGCUGAAGCGUUCACGUCGCAGUCCCUGUCAGACUCUGGUGAAUCUGCGAAUUCUGCAGUACAUCUC [A18U C37U U48C U72A U76C], the self-cleavage is reported as 0.12. Work on UAACAGGGGGCCACAGCUGAAGCGUUCACGUCGCAGCACCUGUCAGAUUCAGGUGGAUCUGCGAAUUCUGCUGUAUACCUC [A18U C38A U51A A56G U78C] yielded a self-cleavage of 0.13. UAACAGGGGGCCACAGCUGAAGCGUUCACGUCGCAGCGCCCGACGGAUUCUGGUGAAUCCGCGAAUUCUGCUGUAUAUCUC [A18U C38G U41C U43A A45G U60C] gave a self-cleavage of 0.15. With UAACAGGGGGCCACAGCUGAAGCGUUCACGUCGCAGCUCCUGUCAGAUUCUGGUGAAUCUGCGAAUCCUGCUGUAUAUCUC [A18U C38U U67C] the self-cleavage was 0.16. Variant UAACAGGGGGCCACAGCUGAAGCGUUCACGUCGCAGCUCCUGUCAGAUUCUGGUGAAUCUGCGAAUUCUGCUGUAUACCUC [A18U C38U U78C] has a self-cleavage of 0.15. In the case of UAACAGGGGGCCACAGCUGAAGCGUUCACGUCGCAGCCUCUGUCGGAUUAUGGUGAAUCUGCGAAUUCUGCUGUAUAUCUC [A18U C39U A45G C50A], the self-cleavage is reported as 0.16. In the case of UAACAGGGGGCCACAGCUGAAGCGUUCACGUCGCAGCCUCUGUCAGAUUCUGUUGAAUCUGCGAAUUCUGCUGUAUAUCUC [A18U C39U G53U], the self-cleavage is reported as 0.16. UAACAGGGGGCCACAGCUGAAGCGUUCACGUCGCAGCCUCAGUCAGAUUCUGGUGAUUCUGCGAAUCCUGCUGUAUAUCUC [A18U C39U U41A A57U U67C] gave a self-cleavage of 0.04. Work on UAACAGGGGGCCACAGCUGAAGCGUUCACGUCGCAGCCUCUGUCAGACUCUGGUGAAUCUGCGAAUUCUGCUGUAUAUCUC [A18U C39U U48C] yielded a self-cleavage of 0.47. Variant UAACAGGGGGCCACAGCUGAAGCGUUCACGUCGCAGCCCAUGUCAGACUCCGGUGAAUCUGCGAAUUCUGCUGUAUAUCUC [A18U C40A U48C U51C] has a self-cleavage of 0.08.

From the RNAGym collection of RNA variant scans (doi:10.1093/nar/gkz1192)
